# According to the RNAGym collection of RNA variant scans (doi:10.7554/elife.90254):
# The source gives no read counts; variants with many changes may rest on few reads.
# B1: LINE1-mini (parent)
# chain: GGCAGAGCUCAACACAGCGUGGCAAAGUGGCUGUGGCUAGACUGCC
# Variants of: B1
# Assay: self-cleavage, relative activity (ratio to wild type); higher = more cleavage; in vitro, sequencing; the parent is a self-cleaving ribozyme
row,Variant,self-cleavage
1,U20A G21A G44C,0.25
2,C18U G30A G40A,0.09
3,G19C U43G C45U,0.03
4,U20A G33A G36A,0.05
5,G19A G29A U32G,0.68
6,G19C A25C G30A,0.19
7,G19C A25C G30C,1.16
8,C18U G21U U34C,0.09
9,G19A G30U G40C,0.12
10,G19C G29U G35U,0.08
11,G19C C37U G40U,0.08
12,G19A C31A U43A,0.08
13,U20A U32A U43A,0.08
14,C18U G22U A26C C31U G33C U43C,0.01
15,C18U G21U C31G,0.08
16,G19U G27C G40A,0.09
17,G19U G21U A24G,0.36
18,C18U G19A U32A G33A C42A,0
19,G19C A26U U38G,0.01
20,G19U C23U U28A,0.11
21,U20A G21U G44A,0.43

row,Variant,self-cleavage
1,G19A G29U G35U U38G,0.03
2,G19C G21C A26G G36U U43A,0.01
3,G19C G27U A41C,0.01
4,U20A G21A A39U,0.27
5,C18U G22C U38C C45A,0.03
6,C18U U34A U43C,0.01
7,U20A G29C G33C,0.19
8,C18U G33U G44U C45U,0.1
9,U20G C31A G33C,0.07
10,G19C C31A C45U,0.09
11,U20C U32A C42U,0.04
12,U20C G30U C45U C46G,0.14
13,G19A C42A U43A G44C,0.04
14,U20A G30U C42G,0.04
15,U20C G22U U32A,0.05
16,C18U G19U U32A,0.01
17,G19A U32A G33U,0.1
18,U20C C31A C37A,0.02
19,U20C A26G G27C G33U,0.03
20,U20C G21C G30C C31G,0.12
21,G19U G21A C46U,0.97

row,Variant,self-cleavage
1,U20A U43G C45U,0.01
2,C18U C31A U32C,0.05
3,U20C G36C A39C,0.12
4,C18U G22C A24U,0.79
5,U20C G22A A41U C42G,0.08
6,G19A U20C U38A,0.01
7,G19A G33C G36A,0.07
8,G19C A25G C37U C46G,0.07
9,U20C C23U A24U U32G,0.06
10,G19A C23A A25U U38A,0.22
11,G19C G29C C46A,0.31
12,C18U G33U G36U A41U,0
13,C18U U28A G36U,0.06
14,G19A A26U G27C U32C G36A,0.03
15,G19C U34G G35A G44U,0.05
16,G19U A25C U34G,0.32
17,G19U A25C A26G G30C G40C,0.03
18,G19A G27A C31A,1.65
19,G19A A26C G27U U38A,0.69
20,U20A G29C C42U,0.19
21,U20A U28G A41U,0.12

row,Variant,self-cleavage
1,C18U G19U C23U G33A,0.01
2,C18U U32A G33U,0.01
3,U20C G22A U38G,0.03
4,C18U U28A G29C U34G,0.13
5,U20C A24U G33U,0.05
6,G19A G29U G44A,0.18
7,U20C C37U C45A C46G,0.01
8,G19A C23U G35U,0.04
9,C18U G33C G35C C37A,0.03
10,G19C G30C C31G U38G,0.03
11,G19U U20G G40A,0.26
12,U20C G22C G35U C42U,0.04
13,U20A U28G G44C,0.44
14,U20G C37U U43C,0.01
15,G19A G21A G22U U28G,0.62
16,G19C G36U C46A,0.11
17,G19A U20G A25G,0.34
18,G19A G21U G33A,0.13
19,U20C G33C C42G,0.05
20,G19A C23G C31U U32A,0.11
21,U20A C23U G29C,0.29
